According to patent US20160038588A1 (Amgen, published 2016):

T1: recombinant mature myostatin (human, produced in E. coli) (human, UniProt O14793 267-375)
T1 construct: mature; Used immobilized (BIAcore, KinExA beads) or in solution; also called GDF-8
T1 sequence (looked up): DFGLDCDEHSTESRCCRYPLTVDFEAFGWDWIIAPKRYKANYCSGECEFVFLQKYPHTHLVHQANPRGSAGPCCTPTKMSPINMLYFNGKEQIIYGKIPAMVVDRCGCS


How the values were obtained:
[1] = biological target: T1, recombinant mature myostatin (human, …); assay: KinExA solution based assay or BIAcore (table does not say which)
[2] = biological target: T1, recombinant mature myostatin (human, …); assay: cell-based or functional assay
[3] = biological target: T1, recombinant mature myostatin (human, …); assay: BIAcore, myostatin immobilized on CM5 chip
[4] = biological target: T1, recombinant mature myostatin (human, …); assay: cell-based or functional assay; remark: listed apart in the source

Row | Binder | Kd [1] [pM] | other results
1 | 2X mTN8-19-21 peptibody (Fc fusion) [here human IgG1 Fc without letters]GGGGGAQSEYQGLCTRWPWMCPPQGWKLEGSGSATGGSGSTASSGSGSATGSEYQGLCTRWPWMCPPQGWKLE | 6 | –
2 | mTN8-19-32 peptibody (Fc fusion, also called 1x mTN8-19-32) [here human IgG1 Fc without letters]GGGGGAQVADHGHCTRWPWMCPPQGWGLE | 9 | –
3 | mTN8-19-33 peptibody (Fc fusion, also called 1x mTN8-19-33) [here human IgG1 Fc without letters]GGGGGAQPESQGHCTRWPWMCPPQGWGLE | 21 | –
4 | Myostatin-2xTN8-19 kc peptibody (Fc fusion) [here human IgG1 Fc without letters]GSGSATGGSGSTASSGSGSATGQGHCTRWPWMCPPYGSGSATGGSGSTASSGSGSATGQGHCTRWPWMCPPY | – | Kd [3]: ~2000 pM; IC50, C2C12 pMARE-luc assay [4]: ~9 nM

Continued, in another order:

Row | Kd [1] [pM] | Binder | other results
5 | 3 | 2X mTN8-19-33 peptibody (Fc fusion) [here human IgG1 Fc without letters]GGGGGAQPESQGHCTRWPWMCPPQGWGLEGSGSATGGSGSTASSGSGSATGPESQGHCTRWPWMCPPQGWGLE | –
6 | 4 | mTN8-19-22 peptibody (Fc fusion, also called 1x mTN8-19-22) [here human IgG1 Fc without letters]GGGGGAQTFSQGHCTRWPWMCPPQGWGLE | –
7 | 10 | mTN8-19-7 peptibody (Fc fusion, also called 1x mTN8-19-7) [here human IgG1 Fc without letters]GGGGGAQLADHGQCIRWPWMCPPEGWELE | IC50, C2C12 pMARE-luc assay [2]: 1.78 nM
8 | 20 | mTN8-19 Con1 peptibody (Fc fusion, also called 1x mTN8-19-con1) [here human IgG1 Fc without letters]GGGGGAQVATQGQCTRWPWMCPPQGWGLE | –
9 | 6 | mTN8-19-21 peptibody (Fc fusion, also called 1x mTN8-19-21) [here human IgG1 Fc without letters]GGGGGAQSEYQGLCTRWPWMCPPQGWKLE | –

Read-outs that look alike come from different tables or passages of the source.
